# Measurements published in the supplement of paper PMC5919970.
# Where a name gives a salt, the structure may show the parent alone. In all, about 2,000 compounds were measured (“fractional viability relative to vehicle”: median about 0.91, lowest 2% from about 0.045 on). Some of the results follow.
# Tested on: TYKNU
# Assay: fractional viability relative to vehicle; TYKNU is a high-grade serous ovarian cancer line; higher = less growth inhibition
# Conditions: 72 h
# Outline: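 TYKNU control cells or lentiCRISPRv2 knockout derivatives were plated at 500 cells per well in duplicate into drug-stamped 384-well plates holding a ~2100-compound library at 2 or 10 μM. Culture was in RPMI 1640 with 10% FBS at 37 °C in 5% CO2, with 72 h of drug treatment. Viability was measured by Cell Titer Glo luminescence, and the averaged duplicate treatment wells were normalised to duplicate control wells at the same plate position.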
# [1] = 2uM, genotype: DNM1L knockout (sgDNM1L #1)
# [2] = 2uM, genotype: sgCTRLA1 (non-targeting control)
# [3] = 10uM, genotype: DNM1L knockout (sgDNM1L #1)
# [4] = 10uM, genotype: sgCTRLA1 (non-targeting control)
SMILES,fractional viability [1],fractional viability [2],fractional viability [3],fractional viability [4]
CNC(=O)c1ccc2cc([C@@]3(O)CCn4cncc43)ccc2c1 [TAK-700 (Orteronel)],1.03,1.06,0.86,1.04
CC(=O)Oc1cc(C(F)(F)F)ccc1C(=O)O [Triflusal],1.08,1.05,0.782,1.03
Cc1cncc(CN2CCC(=C3c4ccc(Cl)cc4CCc4cccnc43)CC2)c1 [Rupatadine Fumarate],1.07,1.02,0.71,0.83
CS(=O)(=O)c1ccc([C@@H](O)[C@@H](CO)NC(=O)C(Cl)Cl)cc1 [Thiamphenicol],1.09,1.01,0.686,0.415
"O=c1[nH]cc(F)c(=O)[nH]1 [Fluorouracil (5-Fluoracil, 5-FU)]",0.896,1.1,0.78,0.781
CNC(=O)c1ccccc1Oc1nc(Nc2cc(OC)c(OC)c(OC)c2)ncc1Br,0.847,0.94,0.581,0.589
C[C@]12C=CC(=O)C=C1CC[C@@H]1[C@@H]2[C@@H](O)C[C@@]2(C)[C@H]1CC[C@]2(O)C(=O)CO [Prednisolone],1.14,1.26,0.976,1.14
O=c1ncn2nc(Sc3ccc(F)cc3F)ccc2c1-c1c(Cl)cccc1Cl,1.06,0.994,0.88,0.938
Cc1c(NC(=O)c2ccc(C(C)(C)C)cc2)cccc1-c1cn(C)c(=O)c(Nc2ccc(C(=O)N3CCOCC3)cc2)n1,1.01,1.09,0.65,0.821
O=C(O)Cc1ccccc1Nc1c(Cl)cccc1Cl [Diclofenac Diethylamine],1,1.03,0.893,1.14
O=C(O)Cc1ccccc1Nc1c(Cl)cccc1Cl [Diclofenac Potassium],1.17,1.13,0.876,1.07
O=C(O)Cc1ccccc1Nc1c(Cl)cccc1Cl [Diclofenac Sodium],1.12,0.938,0.917,0.967
C[C@@H](c1ncncc1F)[C@](O)(Cn1cncn1)c1ccc(F)cc1F [Voriconazole],0.953,1.24,0.887,1.11
C[C@@H]1CC(=O)NN=C1c1ccc(NN=C(C#N)C#N)cc1 [Levosimendan],0.946,1.02,0.676,0.71
CN(C)CCCNC(=O)c1ccc(-c2cc(O)c3ncccc3c2)cc1,0.742,0.892,0.514,0.541
NC1(c2ccc(-c3nc4ccn5c(=O)[nH]nc5c4cc3-c3ccccc3)cc2)CCC1,0.85,0.853,0.346,0.228
Nc1cccc(S(=O)(=O)N2CCCN(S(=O)(=O)c3ccc4c(c3)OCCO4)CC2)c1,0.767,0.995,0.742,0.647
CC[C@H](C)n1cc(C)c2c(C(=O)NCc3c(C)cc(C)[nH]c3=O)cc(-c3ccc(N4CCNCC4)nc3)cc21,0.835,0.889,0.338,0.358
Cc1cccc(-c2[nH]c(C(C)(C)C)nc2-c2ccc3nccnc3c2)n1,1.02,1.21,0.902,1.08
CC[C@@]1(O)C(=O)OCc2c1cc1n(c2=O)Cc2cc3cc(O)ccc3nc2-1 [(S)-10-Hydroxycamptothecin],0.0946,0.101,0.0697,0.073
CN1CCN(CCCNc2ncc(Cl)c(-c3cc4c(C(=O)NC5CC5)cccc4s3)n2)CC1,0.789,1.05,0.73,0.719

SMILES,fractional viability [1],fractional viability [2],fractional viability [3],fractional viability [4]
NC(=O)c1noc([C@H](CCCC2CCCCC2)CC(=O)NO)n1,0.928,1.03,0.623,0.827
CCn1c(=O)c(-c2ccc(-c3cncs3)cc2Cl)cc2cnc(Nc3ccc(N4CCN(C)CC4)cc3)nc21,0.596,0.857,0.521,0.793
O=C1NC(=O)/C(=C/c2ccc(-c3ccc(F)cc3O)o2)S1,0.764,1.12,0.64,0.89
CC(C)CCN1c2nc(Nc3cc(F)c(O)c(F)c3)ncc2N(C)C(=O)C1C (centres undefined),1.29,1.04,0.556,0.539
OC[C@@H](O)[C@@H](O)CO [Erythritol],0.77,0.989,0.705,0.968
Cc1cnc(Nc2ccc(N3CCN(C)CC3)cc2)nc1Nc1cccc(S(=O)(=O)NC(C)(C)C)c1,0.363,0.472,0.0682,0.0804
COC(=O)c1ccc2c(c1)NC(=O)/C2=C(\Nc1ccc(N(C)C(=O)CN2CCN(C)CC2)cc1)c1ccccc1 [Nintedanib (BIBF 1120)],0.903,0.889,0.152,0.147
CC(C)C[C@H](NC(=O)CNC(=O)c1cc(Cl)ccc1Cl)B(O)O,0.122,0.107,0.0888,0.0714
O=C(O[C@@H]1Cc2c(O)cc(O)cc2O[C@@H]1c1cc(O)c(O)c(O)c1)c1cc(O)c(O)c(O)c1 [(-)-Epigallocatechin Gallate],0.973,1.04,0.877,1.02
CCN(CC)CCN(Cc1ccc(-c2ccc(C(F)(F)F)cc2)cc1)C(=O)Cn1c(SCc2ccc(F)cc2)nc(=O)c2c1CCC2,0.329,0.569,0.0156,0.00842
N#C[C@@H]1CCCN1C(=O)CNC12CC3CC(CC(O)(C3)C1)C2 [Vildagliptin (LAF-237)],0.917,1.12,1.04,1.01
Cc1nc(Nc2n[nH]c3c2CN(C(=O)N[C@H](CN(C)C)c2ccccc2)C3(C)C)c2sccc2n1,0.127,0.16,0.115,0.135
CCOc1ccn(-c2ccc(F)cc2)c(=O)c1C(=O)Nc1ccc(Oc2ccnc(N)c2Cl)c(F)c1,0.895,1.09,0.69,0.921
CNC[C@H](O)c1cccc(O)c1 [Phenylephrine HCl],0.818,0.894,0.784,0.899
N[C@@H]1CN(c2c(F)cc3c(=O)c(C(=O)O)cn([C@@H]4C[C@@H]4F)c3c2Cl)CC12CC2 [Sitafloxacin Hydrate],1.23,1.21,1.13,1.12
O=C(O)c1ccc(Nc2ncc3c(n2)-c2ccc(Cl)cc2C(c2c(F)cccc2F)=NC3)cc1,0.651,0.938,0.398,0.623
C[C@H](NC(=O)Cc1cc(F)cc(F)c1)C(=O)N[C@@H]1C(=O)N(C)c2ccccc2-c2ccccc21,1.03,1.01,0.767,1.04
Cc1cc(N2CCOCC2)ccc1Nc1nc(NC2CCCCC2)c2[nH]cnc2n1,0.443,0.469,0.462,0.382
O=c1c(-c2ccc(O)cc2)coc2cc(O)cc(O)c12 [Genistein],0.966,1.08,0.621,1
OCc1ccc(-c2ccc(-c3ccc(CO)s3)o2)s1,0.429,0.66,0.141,0.248
CSc1cccc(Nc2ncc3cc(-c4c(Cl)cccc4Cl)c(=O)n(C)c3n2)c1,0.603,1.09,0.198,0.486

SMILES,fractional viability [1],fractional viability [2],fractional viability [3],fractional viability [4]
CNC(=C[N+](=O)[O-])NCCSCc1ccc(CN(C)C)o1 [Ranitidine],0.91,1.04,0.719,0.999
C=CCc1ccc(O)c(-c2ccc(O)c(CC=C)c2)c1 [Honokiol],1.13,1.1,0.797,0.958
COC(=O)[C@H]1[C@H]2C[C@@H]3c4[nH]c5cc(OC)ccc5c4CCN3C[C@H]2C[C@@H](OC(=O)c2cc(OC)c(OC)c(OC)c2)[C@@H]1OC [Reserpine],0.965,1.1,0.127,0.485
COc1cc2c(cc1OC)-c1cc3ccc(OC)c(OC)c3c[n+]1CC2 [Palmatine chloride],0.974,1.03,0.801,0.948
Cc1nc(C)c(Cl)c(O)c1Cl [Clopidol],0.814,1.16,0.873,1.08
CCN(CC)CCCC(C)Nc1c2ccc(Cl)cc2nc2ccc(OC)cc12 (centres undefined) [Quinacrine 2HCl],0.491,0.536,0.0312,0.0211
CC(C)(C)NS(=O)(=O)c1cncc(-c2cc(F)c3nc(N)nn3c2)c1,0.916,1.04,1.06,1.03
O=C(O)P(=O)(O)O [Foscarnet Sodium],1,1.11,0.854,1.05
C1=N/C2=N/c3ccc(OCCN4CCCC4)c(c3)COC/C=C/COCc3cccc(c3)C(=C1)N2 [Pacritinib (SB1518)],0.128,0.169,0.0312,0.029
COc1cc(C=O)ccc1O [Vanillin],1.03,1.03,0.803,1.13
CNc1ncc2cc(-c3cc(NC(=O)NCCC(C)(C)C)c(F)cc3C)c(C)nc2n1,0.793,0.953,0.838,0.809
C#C[C@]1(O)CC[C@H]2[C@@H]3CCc4cc(OC)ccc4[C@H]3CC[C@@]21C [Mestranol],0.904,1.02,0.646,0.935
CC(C)NCC(O)c1ccc(NS(C)(=O)=O)cc1 (centres undefined) [Sotalol],0.843,1.14,0.834,1.01
CN(C)C(=O)c1ccc(S(=O)(=O)c2ccc(NC(=O)[C@@](C)(O)C(F)(F)F)c(Cl)c2)cc1,0.831,0.889,0.602,0.609
CN(CCOc1ccc(NS(C)(=O)=O)cc1)CCc1ccc(NS(C)(=O)=O)cc1 [Dofetilide],0.999,0.981,0.838,0.933
CC(=O)N1CCN(c2ccc(OCC3COC(Cn4ccnc4)(c4ccc(Cl)cc4Cl)O3)cc2)CC1 (centres undefined) [Ketoconazole],0.908,1.04,0.782,0.88
"Cc1[nH]c(/C=C2\C(=O)Nc3ccccc32)c(C)c1CCC(=O)O [TSU-68 (SU6668, Orantinib)]",0.962,1.11,0.869,1.02
N[C@@H]1CCCN(c2c(/C=C3\SC(=O)NC3=O)cccc2-c2ccccc2)C1,0.726,1.16,0.702,1.05
CO[C@H]1C[C@@H]2CC[C@@H](C)[C@@](O)(O2)C(=O)C(=O)N2CCCC[C@H]2C(=O)O[C@H]([C@H](C)C[C@@H]2CC[C@@H](O)[C@H](OC)C2)CC(=O)[C@H](C)/C=C(\C)[C@@H](O)[C@@H](OC)C(=O)[C@H](C)C[C@H](C)/C=C/C=C/C=C/1C [Rapamycin (Sirolimus)],0.64,0.721,0.607,0.68
